Source: the GPR68 mutational scans of Howard et al. (2025)

B1: GPR68, Q15743 (parent)
chain: MGNITADNSSMSCTIDHTIHQTLAPVVYVTVLVVGFPANCLSLYFGYLQIKARNELGVYLCNLTVADLFYICSLPFWLQYVLQHDNWSHGDLSCQVCGILLYENIYISVGFLCCISVDRYLAVAHPFRFHQFRTLKAAVGVSVVIWAKELLTSIYFLMHEEVIEDENQHRVCFEHYPIQAWQRAINYYRFLVGFLFPICLLLASYQGILRAVRRSHGTQKSRKDQIQRLVLSTVVIFLACFLPYHVLLLVRSVWEASCDFAKGVFNAYHFSLLLTSFNCVADPVLYCFVSETTHRDLARLRGACLAFLTCSRTGRAREAYPLGAPEASGKSGAQGEEPELLTKLHPAFQTPNSPGSGGFPTGRLA

How the values were obtained:
[1] = variants of: B1; assay: cAMP reporter score (Enrich2 score, wild type = 0); higher = more signal; HEK293T, FACS bins
[2] = variants of: B1; assay: surface expression score (Enrich2 score, wild type = 0); higher = more signal; HEK293T, FACS bins

Variant	cAMP reporter score ([1]; pH 5.5)	cAMP reporter score ([1]; pH 6)	cAMP reporter score ([1]; pH 6, modulator: ogerin)	cAMP reporter score ([1]; pH 6.5, modulator: ogerin)	surface expression score [2]
MGNITADNSSMSCTIDHTIHQTLAPVVYVTVLVVGFPANCLSLYFGYLQIKARNELGVYLCNLTVADLFYICSLPFWLQYVLQHDNWSHGDLSCQVCGILLYENIYISVGFLCCISVDRYLAVAHPFRFHQFRTLNAAVGVSVVIWAKELLTSIYFLMHEEVIEDENQHRVCFEHYPIQAWQRAINYYRFLVGFLFPICLLLASYQGILRAVRRSHGTQKSRKDQIQRLVLSTVVIFLACFLPYHVLLLVRSVWEASCDFAKGVFNAYHFSLLLTSFNCVADPVLYCFVSETTHRDLARLRGACLAFLTCSRTGRAREAYPLGAPEASGKSGAQGEEPELLTKLHPAFQTPNSPGSGGFPTGRLA [K136N]	-0.565	-0.642	-0.563	0.147	-2.69
MGNITADNSSMSCTIDHTIHQTLAPVVYVTVLVVGFPANCLSLYFGYLQIKARNELGVYLCNLTVADLFYICSLPFWLQYVLQHDNWSHGDLSCQVCGILLYENIYISVGFLCCISVDRYLAVAHPFRFHQFRTLPAAVGVSVVIWAKELLTSIYFLMHEEVIEDENQHRVCFEHYPIQAWQRAINYYRFLVGFLFPICLLLASYQGILRAVRRSHGTQKSRKDQIQRLVLSTVVIFLACFLPYHVLLLVRSVWEASCDFAKGVFNAYHFSLLLTSFNCVADPVLYCFVSETTHRDLARLRGACLAFLTCSRTGRAREAYPLGAPEASGKSGAQGEEPELLTKLHPAFQTPNSPGSGGFPTGRLA [K136P]	-0.809	-0.529	-0.801	-0.597	-1.81
MGNITADNSSMSCTIDHTIHQTLAPVVYVTVLVVGFPANCLSLYFGYLQIKARNELGVYLCNLTVADLFYICSLPFWLQYVLQHDNWSHGDLSCQVCGILLYENIYISVGFLCCISVDRYLAVAHPFRFHQFRTLRAAVGVSVVIWAKELLTSIYFLMHEEVIEDENQHRVCFEHYPIQAWQRAINYYRFLVGFLFPICLLLASYQGILRAVRRSHGTQKSRKDQIQRLVLSTVVIFLACFLPYHVLLLVRSVWEASCDFAKGVFNAYHFSLLLTSFNCVADPVLYCFVSETTHRDLARLRGACLAFLTCSRTGRAREAYPLGAPEASGKSGAQGEEPELLTKLHPAFQTPNSPGSGGFPTGRLA [K136R]	-0.382		-0.333	0.005	-0.694
MGNITADNSSMSCTIDHTIHQTLAPVVYVTVLVVGFPANCLSLYFGYLQIKARNELGVYLCNLTVADLFYICSLPFWLQYVLQHDNWSHGDLSCQVCGILLYENIYISVGFLCCISVDRYLAVAHPFRFHQFRTLSAAVGVSVVIWAKELLTSIYFLMHEEVIEDENQHRVCFEHYPIQAWQRAINYYRFLVGFLFPICLLLASYQGILRAVRRSHGTQKSRKDQIQRLVLSTVVIFLACFLPYHVLLLVRSVWEASCDFAKGVFNAYHFSLLLTSFNCVADPVLYCFVSETTHRDLARLRGACLAFLTCSRTGRAREAYPLGAPEASGKSGAQGEEPELLTKLHPAFQTPNSPGSGGFPTGRLA [K136S]	-0.351	-0.306	-0.375	-0.284	-1.64

The least precise scores are not listed. Not listed are two conditions whose scores span a narrow range. Names with del lack the residues named; names with ins carry added residues between the positions named. For some of these results: How much ogerin was present is not stated here.
